Over roughly 5,400 compounds, “IFI” has its median near 2; the highest 2% begin near 22. The list shows a part of the results.
Assay: NOVARTIS: Inhibition Frequency Index (IFI) - the number of HTS assays where a compound showed > 50% inhibition/induction, expressed as a percentage of the number of assays in which the compound was tested.
Assay type: functional

Compound	IFI [%]
COc1ccc(C2CC(=O)C3=C(C2)NC(C)=C(C(=O)OC(C)C)C3c2cccc(Cl)c2)cc1OC (configuration not stated)	6.02
Cc1ccc(-[n+]2c(-c3ccccc3)cn3c2CCCCC3)cc1	6.42
CC(C)(C)CC(C)(C)c1ccc(O)c(CN2CCN(CCC#N)CC2)c1	0
C=C(C)[C@@H]1CC=C(CN2C[C@H](NC(=O)c3ccc(OC)cc3OC)C[C@H]2C(=O)OC)CC1	1.74
CC(=O)N(C1=C(N2CCCC2)C(=O)c2ccccc2C1=O)c1ccccc1C	0
Cc1cccc(-c2cc(C(=O)NC3CCN(Cc4ccccc4)CC3)cc(-n3cnnn3)c2)c1	1.71
CN1CCN(C(=O)c2cccc(-c3nc(-c4ccncc4)cnc3N)c2)CC1	0
CCCCCCCCCC[n+]1c(C)n(CC)c2cc(Cl)c(Cl)cc21	0
CC(C)c1ccc(/C=C/C(=O)NCc2ccco2)cc1	0
O=[N+]([O-])c1ccc(-c2ccc(C=NNc3ccccn3)o2)cc1	0
Oc1ccccc1C=NNc1nnc2c3ccccc3n(Cc3ccccc3)c2n1	0
c1ccc(-c2nc(Nc3ccncc3)cc(-c3cccnc3)n2)cc1	0
O=c1[nH]c(SCC(O)c2ccc(Cl)c(Cl)c2)nc2sc3ccccc3c12 (configuration not stated)	3.73
CCOc1ccc2nc(Sc3nc(Nc4cccc(C)c4)nc(Nc4cccc(C)c4)n3)sc2c1	1.21
CO[C@H]1O[C@@H]2COC(c3ccccc3)O[C@H]2[C@@H](O)[C@@H]1OCc1ccccc1 (some centres not stated)	1.59
CCc1ccc2[nH]c(=O)c(CN(CCN(CC)CC)C(=S)NCCCN(C)C)cc2c1	5.36
N/C(=N\C(=O)c1nc(Cl)c(N)nc1N)NCc1ccc(Cl)c(Cl)c1	2.82
COc1ccc(C2CC(=O)C3=C(C2)NC(C)=C(C(=O)OC(C)C)C3c2ccc(F)cc2)cc1OC (configuration not stated)	4.71
COC(=O)C1=CN(Cc2ccc(OC)cc2)C=C(C(=O)OC)C1c1cccc([N+](=O)[O-])c1	1.16
C=CC[n+]1c(C=C2C=CN(C)C=C2)sc2ccccc21	15.4
Brc1ccc(-c2cn3c([n+]2-c2ccccc2)SCC3)cc1	0.741

Compound	IFI [%]
CC(C)CC[n+]1ccccc1C=Cc1ccc(N(C)C)cc1	15.4
CN(C)CCNc1ncc(C(=O)NCc2ccccc2)c(NCCc2ccccc2)n1	1.92
CC(C)(C)CC(C)(C)Nc1c(-c2ccccc2OC(=O)c2ccc(Cl)cc2Cl)nc2ccccn12	2.83
CNC(=O)NNC(=O)c1cccnc1	2.75
CN(Cc1ccccc1)c1nc2c(c(=O)[nH]c(=O)n2C)n1CCCSc1ncccn1	2.7
O=C(NCCc1ccccc1)c1cnc(NCCC2=CCCCC2)nc1NCC1CCCCC1	3.85
CC(C(=O)NN=C1CCN(C)CC1)N(c1ccccc1)S(C)(=O)=O (configuration not stated)	0
O=C(Nc1ccc(-n2cnnn2)cc1)C1CCN(Cc2cc3ccccc3o2)CC1	0
CC(=O)Nc1cccc(NC(=O)CSc2ccc3nnc(-c4ccc(F)cc4)n3n2)c1	0
O=C1N(c2ccccc2)C[C@@H]2C[C@@H](c3ccc4nsnc4c3)N3CCC[C@@]123	0
O=C(NCc1cccnc1)[C@@H]1C[C@H](NC2CCN(CCc3ccccc3)CC2)CN1Cc1ccc(Cl)cc1	2.88
COc1cccc2cc(C(=O)Nc3cccc(C(F)(F)F)c3)c(=O)oc12	2.33
CCN(CC)c1ccc(C=Cc2cccc[n+]2CC)cc1	8.33
COc1ccc(C(=O)C(C)[n+]2ccccc2-c2ccccn2)cc1 (configuration not stated)	0
COCCn1c(SCC(=O)c2ccc(C)cc2C)nnc1-c1ccco1	0
CCCCN(CCCC)[P+](N(CCCC)CCCC)(N(CCCC)CCCC)N(CCCC)CCCC	27.3
CCOC(=O)c1ccc(NCc2c(C)[nH]c3ccccc3c2=O)cc1	4.17
CCOC(=O)C1(Cc2ccc(OC)cc2)CCN(C(=O)c2scc3c2OCCO3)CC1	0
CCOc1ccc(C2C(C(=O)OCCc3ccccc3)=C(C)NC3=C2C(=O)CC(C)(C)C3)cc1 (configuration not stated)	3.57
Nc1cccc(C(=O)Nc2ccc(Oc3cccc(Oc4ccc(NC(=O)c5cccc(N)c5)cc4)c3)cc2)c1	0
COc1ccc(NC(=O)C2c3ccccc3C(=O)N(CC(C)C)C2c2cccs2)cc1Cl (configuration not stated)	3.12

Compound	IFI [%]
CC(C)N(C)Cc1cc(-c2nc3ccccc3s2)ccc1O	8.04
CC(C)N(CC(=O)Nc1cc(C(C)(C)C)nn1-c1ccc(Cl)cc1)C(=O)c1ccc(C(C)(C)C)cc1	1.89
COc1ccccc1Nc1nc(NCC2CCCO2)c2ccccc2n1 (configuration not stated)	0
CCC(C)NCC(O)(c1ccc(Cl)cc1)c1ccc(Cl)cc1 (configuration not stated)	1.32
Cn1c(=O)[nH]c(=O)c2c1nc(N1CCCCCC1)n2CC(O)COc1ccc([N+](=O)[O-])cc1 (configuration not stated)	2.38
COc1ccccc1NC(=O)CCCC(=O)OC(C)C(=O)c1ccccc1 (configuration not stated)	0
Cn1nc(C(C)(C)C)cc1C(=O)N1CCCN1C(=O)CNC(=O)c1ccco1	0
CC(C)NC(=O)c1ccc2c(c1)N=C(c1ccccc1)N(C1CC1)C2	2.47
OC(CNCC1CCCO1)Cn1c2ccc(Br)cc2c2cc(Br)ccc21 (configuration not stated)	11.7
COC(=O)c1ccnn(-c2ccccc2)c1=O	2.6
c1ccc(CCc2nc3cccnc3n2C2CCN(C3CCN(Cc4ccccc4)CC3)CC2)cc1	1.92
CC1=C(C(=O)OC(C)C)C(c2ccc(F)cc2)C2=C(CC(c3ccc(Cl)cc3)CC2=O)N1 (configuration not stated)	7.06
CN1CCCC1CCNCc1cc(-c2ccnc3cc(Cl)ccc23)ccc1O (configuration not stated)	5
Clc1cccc(Nc2nc(NCc3ccco3)c3ccccc3n2)c1	9.68
Cc1ccc(N(C(=O)c2snc(C(=O)NC3CCCCC3)c2N)C(C(=O)NCCc2ccccc2)c2ccc(O)cc2)c(C)c1 (configuration not stated)	5.21
O=C(Oc1ccc(-c2ccc(OC(=O)c3ccco3)cc2)cc1)c1ccco1	0
O=C(Cn1c2ccccc2c(=O)c2cc(Cl)ccc21)Nc1cccc(C(F)(F)F)c1	3.45
COc1ccc2ccc(OC)c(C3C(C#N)=C(N)OC4=C3C(=O)CC(C)(C)C4)c2c1 (configuration not stated)	0
C=CCc1cc([N+](=O)[O-])cc2c1OC1(C=C2)N(c2ccccc2)c2ccccc2C1(C)C (configuration not stated)	0
COc1ccc(/C=C/C(=O)NC(=O)c2ccccc2O)cc1OC	8.33

— ChEMBL document CHEMBL1156829
